Assay results from PubChem BioAssay AID504832 (National Center for Advancing Translational Sciences (NCATS), 2011).
Hit rate of the full screen: of about 310,000 compounds, about 18,000 (5.8%) were called active. Inconclusive means that the source gave no clear call. Such entries were picked first, then a sample of the others. Calls come from the whole dose curve; as a rule, active = well fitted inhibition curve with a large enough effect; inconclusive = small, poorly fitted or top-dose-only effect, or another doubt; inactive = no such curve, though single readings can be large or run the other way. Potencies of inconclusive entries are left out as doubtful fits.

test: Primary qHTS for delayed death inhibitors of the malarial parasite plastid, 48 hour incubation; conditions: P. falciparum luciferase growth in erythrocytes; series mostly up to 28.7 µM; activity change, negative = inhibition: at the top concentration
How it was run: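 Cell-based growth assay: transgenic P. falciparum expressing firefly luciferase, cultured in red cells within RPMI 1640 containing 0.5% w/v Albumax, 24 mM bicarbonate and gentamycin. A drop in luciferase activity indicates inhibition.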
% is set by controls: 0 for no effect and ±100 for the full control effect; potency is the fitted concentration of half-maximal effect; tags give direction and shape of the fitted curve.

SMILES | Potency | activity change, negative = inhibition
COc1ccccc1C(=O)NC(=S)Nc1ccc(NC(=O)c2ccco2)cc1 | inconclusive [inhibitor, partial curve] | 
CCCN1C(=O)/C(=C\c2nc3ccccc3c(=O)[nH]2)c2ccccc21 | inconclusive [inhibitor, single point] | 
O=C(CCN1CCC(c2ccccc2)C1)c1ccccc1 (centres undefined) | inconclusive [inhibitor, full curve] | 
COc1ccccc1C(CCNS(=O)(=O)c1ccc(C)cc1)c1ccco1 (centres undefined) | inconclusive [inhibitor, partial curve] | 
On1onc2c3cc(-c4ccccc4)nc3ccc21 | inconclusive [inhibitor, single point] | 
CC1CN(Cc2nc3ccccc3c(=O)[nH]2)CC(C)O1 (centres undefined) |  | inactive: 7.49%
CCCCn1c(N)c(N(CC)C(=O)C2CCN(C(=O)c3ccccc3C)CC2)c(=O)[nH]c1=O |  | inactive: -10%
Cc1ccc(C)c(SCC(=O)Nc2cccnc2Cl)c1 | active: 10.4 µM | 
Cc1c(NC(=O)C(C)OC(=O)CCC2CCCC2)c(=O)n(-c2ccccc2)n1C (centres undefined) | inconclusive [inhibitor, single point] | 
Cc1ccc2cc(CN(C(=O)c3ccco3)c3ccccc3C)c(=O)[nH]c2c1 | inconclusive [inhibitor, single point] | 
CCc1ccc(N/C(SCc2cccc(F)c2)=C(/C#N)C(=O)NCc2ccco2)cc1 | inconclusive [inhibitor, single point] | 
COc1ccc(/C=C2\SC(=S)N(CCC(=O)Nc3cccc(C(=O)O)c3)C2=O)cc1 |  | inactive: 19.7%
CCOC(=O)CNC(=O)C1(/C=C/c2ccccc2)CC(=O)N1c1ccc(OC)cc1 (centres undefined) | active: 10.4 µM | 
Cc1cc(C)n(/N=C/c2ccc(C(C)C)cc2)c(=O)c1C#N | active: 1.85 µM | 
CN(CCc1cn[nH]c1)Cc1nc(C(c2ccccc2)c2ccccc2)no1 | inconclusive [inhibitor, single point] | 
N=c1c(S(=O)(=O)c2ccc(Br)cc2)cc2c(=O)n3ccccc3nc2n1C1CCCCC1 | active: 8.28 µM | 
CCN(CC)S(=O)(=O)c1cccc(NC(=O)CN2C(=O)NC3(CCC(C)CC3)C2=O)c1 (centres undefined) | inconclusive [inhibitor, single point] | 
Cc1cc(-c2ccccc2)nc(SCC(=O)N2CCCC2)n1 |  | inactive: 20.6%
Cc1ccc(C(=O)N/C(=C\c2ccc(-c3cccc([N+](=O)[O-])c3)o2)C(=O)NCCCN2CCOCC2)cc1 | inconclusive [inhibitor, single point] | 
O=C(COc1cc(F)ccc1[N+](=O)[O-])Nc1ccc(N2CCCCC2)cc1 | inconclusive [inhibitor, single point] | 
CC(C)Cc1ccc([C@@H](C)C(=O)NS(C)(=O)=O)cc1 |  | inactive: -2.01%
CC1CCN(CCCCOc2ccc(Br)cc2)CC1 |  | inactive: -19.1%
CCc1nc(NC(=O)Cc2csc(C)n2)sc1C(=O)OC |  | inactive: -0.0586%

SMILES | Potency | activity change, negative = inhibition
CCC(C)Nc1nc(N)c([N+](=O)[O-])c(NCCO)n1 (centres undefined) | inconclusive [inhibitor, full curve, poor fit] | 
COc1ccc(CN(C)C(=O)c2cc(S(=O)(=O)N3CCOCC3)ccc2N2CCCC2)cc1 | active: 9.28 µM | 
O=c1c2c(-c3cccs3)csc2ncn1-c1ccc(Br)cc1 | inconclusive [inhibitor, full curve, poor fit] | 
Cc1cccc(CN2CCC(Oc3ccc(C(=O)N4CCCC4)cc3)CC2)n1 | inconclusive [inhibitor, single point] | 
O=C(Nc1ccccc1)c1cccnc1N1CCOCC1 |  | inactive: 13.3%
O=C(CCCC(=O)NC1CCCC1)NC1CCCC1 | inconclusive [inhibitor, full curve] | 
CC(C)Cc1ccc(C(C)C(=O)Nc2ccc(O)cc2)cc1 (centres undefined) | inconclusive [inhibitor, single point] | 
C[N+]12CCC(CC1)C(C#N)(N1CCOCC1)C2 (centres undefined) | inconclusive [inhibitor, partial curve] | 
COc1ccccc1NC(=O)CN(c1ccc(C)cc1)S(=O)(=O)c1c(C)n[nH]c1C | inconclusive [inhibitor, single point] | 
CC(=O)Nc1ccc(-c2csc(N/N=C(/C)c3ccccc3)n2)cc1 | inconclusive [inhibitor, single point] | 
CC(c1ccc2c(c1)OCO2)n1c(=S)[nH]c2ccccc2c1=O (centres undefined) | inconclusive [inhibitor, single point] | 
O=C(CSc1n[nH]c(-c2cccnc2)n1)Nc1ccccc1 |  | inactive: -20.6%
CCn1cc([N+](=O)[O-])c(C(=O)N2N=C(c3ccc4ccccc4c3)CC2c2ccccc2O)n1 (centres undefined) | active: 8.28 µM | 
Cc1ccc2nc(Nc3nc(C)cc(-c4ccccc4)n3)[nH]c(=O)c2c1 | active: 3.29 µM | 
COc1cc(/C=N/NC(=O)c2ccc(-c3ccccc3)cc2)cc(OC)c1OC | inconclusive [inhibitor, single point] | 
CC(=O)N1CCN(C(=O)c2ccc(-n3c(C)ccc3C)cc2)CC1 | inconclusive [inhibitor, partial curve] | 
COC(=O)c1ccc(Cn2cc(C(F)(F)F)ccc2=O)cc1 | inconclusive [inhibitor, single point] | 
CC(C)C(C)NC(=O)COc1nc2ccccc2nc1N(C)C1CCCCC1 (centres undefined) | inconclusive [inhibitor, single point] | 
Cn1c(SCC(=O)N2CCCc3ccccc32)nnc1-c1c[nH]c2ccccc12 | active: 13.1 µM | 
CC(C)c1cc(=O)n2[nH]c(N)nc2n1 | inconclusive [inhibitor, full curve, poor fit] | 
Nc1nccc(-c2ccc(-n3cnc4ccccc43)cc2)n1 |  | inactive: -1.84%
Cc1cccc(CC(=O)N2CCN=C2SCc2ccc([N+](=O)[O-])cc2)c1 | inconclusive [inhibitor, single point] | 
O=C(Nc1ccc(S(=O)(=O)Nc2nccs2)cc1)c1cnc(Cl)c(Cl)c1 | inconclusive [inhibitor, partial curve, poor fit] | 

SMILES | Potency | activity change, negative = inhibition
c1ccc2c(Nc3nc(N4CCOCC4)c4ccccc4n3)cccc2c1 | inconclusive [inhibitor, single point] | 
Cc1ccsc1C(=O)Nc1nc2ccccc2[nH]1 |  | inactive: 152%
CCOC(=O)c1cccc(NC(=O)COc2ccc([N+](=O)[O-])cc2)c1 | inconclusive [inhibitor, single point] | 
CC(=O)Oc1c(C)cc(Cl)cc1C(=O)Nc1ccc([N+](=O)[O-])cc1Cl | inconclusive [inhibitor, single point] | 
O=C(Nc1ccccc1Cl)OC1CN2CCC1CC2 (centres undefined) | inconclusive [inhibitor, single point] | 
COCCNC(=O)c1c(N)n(/N=C/c2cccs2)c2nc3ccccc3nc12 |  | inactive: -0.206%
CCNC(=O)O/N=C1\CCCCC1c1ccc([N+](=O)[O-])cc1[N+](=O)[O-] (centres undefined) | inconclusive [inhibitor, single point] | 
Cc1nn(C)cc1C(=O)Nc1ccc2c(c1)OCCO2 |  | inactive: 114%
COc1cccc(NC(=O)CNc2cc(S(=O)(=O)N3CCOCC3)ccc2N2CCCC2)c1 | inconclusive [inhibitor, single point] | 
COc1ccccc1CNC(=O)CCNS(=O)(=O)c1ccc2c(c1)oc(=O)n2C | inconclusive [inhibitor, single point] | 
Cc1cnc(NC(=O)Cc2c[nH]c3ccccc23)s1 |  | inactive: -24.5%
COc1ccc(-c2noc(C)c2-c2ccc3ccccc3n2)c(O)c1 | active: 11.7 µM | 
COc1ccccc1C1CCN(C(=O)c2cnn(-c3ccccc3)c2C)CC1 | inconclusive [inhibitor, single point] | 
C#CCOCCOCCOCCNc1nc(N2CCN(C(=O)CCCCCCCCCCNC(=O)[C@H](CCCCN)n3cc(CCCC(=O)O)nn3)CC2)nc(N2CCN(C(=O)CCCCCCCCCCNC(=O)[C@@H]([C@H](C)O)n3cc(C)nn3)CC2)n1 | active: 5.22 µM | 
CCOc1ccc(N=C2NC(=O)C(CC(=O)Nc3ccccc3)S2)cc1 (centres undefined) | active: 8.28 µM | 
COC(=O)[C@@H]1CC[C@H](C)[C@@H](c2ccc(C)cc2)N1C(=O)c1ccc(/C=N/O[C@@H](C)c2cn([C@H](CO)Cc3ccccc3)nn2)cc1 | active: 3.7 µM | 
COc1ccc(S(=O)(=O)N(C)C)cc1NC(C)C(=O)Nc1cccc(C#N)c1 (centres undefined) | active: 2.94 µM | 
C=CCc1ccc(OCC(O)CN2CCN(Cc3ccc(Cl)cc3)CC2)c(OC)c1 (centres undefined) | inconclusive [inhibitor, single point] | 
O=C(OCC(=O)N1CCN(C(=O)c2ccco2)CC1)c1ccccc1C(=O)c1ccccc1 |  | inactive: -20.4%
Cc1ccc(C2=NN(C(=O)c3ccco3)C(O)(C(F)(F)F)C2)cc1 (centres undefined) |  | inactive: 14.6%
Cc1cc(=O)[nH]c(SCC(=O)c2ccc(O)c(O)c2)n1 | inconclusive [inhibitor, partial curve, poor fit] | 
CN(CC(=O)Nc1cccc(F)c1)C(=O)c1ccccc1OCCOc1ccccc1 | inconclusive [inhibitor, single point] | 
CN(C)CCNC(=O)c1cccn(Cc2cc(C(F)(F)F)cc(C(F)(F)F)c2)c1=O | inconclusive [inhibitor, full curve, poor fit] | 
